# This is one part of the list.
# Assays:
# Assay in all cases: glycan array binding signal (z-score within array); higher = stronger binding
# Settings in all cases: glycan notation: IUPAC condensed, linker removed
# [1] = biological target: Neu5Gc(a2-8)Neu5Gc(a2-3)Gal(b1-4)GlcNAc(b1-3)Gal(b1-4)GlcNAc
# How it was run: (§1)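 Glycan array data were curated from 3228 arrays in the Consortium for Functional Glycomics database and kept only where the protein sequence was available. Glycan names were converted to IUPAC-condensed notation, and columns mapping to the same glycan were averaged. The binding signal is a within-array Z-score, averaged across arrays of the same protein sequence at different concentrations or buffers and across linkers. Negative Z-scores can be read as non-binding.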
# [2] = biological target: Neu5Gc(a2-8)Neu5Gc(a2-6)Gal(b1-4)GlcNAc
# How it was run: as §1
# [3] = biological target: Neu5Gc(b2-6)Gal(b1-4)GlcNAc
# How it was run: as §1
binder,measurement,setting,value
Epa23 (Candida glabrata) (protein) MGSSHHHHHHSSGLVPRGSHMIPNPFEGTINNFPSGCSPNHGLYNRGLTMELYNYSYIHPQSIQSYFNTSTLKKMEKGQCWDPSYLDVNYPRTGYKTHNRFAKVNGIDGILDFEFNPTRSCVPSKGQLPQNYNYPLQFTLSNFTMLLYGYFKPKVTAKHTFTIFADDLLFLNFGAGNAFDCCQQQDTIDDFGNYQAYALWGSDTQQNTLTVNLDANIYYPIRMFYNNRDFKGALNMYFTTDESNTKINDFSGYLFNIPDSSEGCPAHISYETECGNVSG,glycan array binding signal (z-score),[1],-0.251
same,glycan array binding signal (z-score),[2],-0.235
same,glycan array binding signal (z-score),[3],-0.194

# Source: the supplement of paper PMC8728848
